# Data as given in PubChem BioAssay AID1476 (National Center for Advancing Translational Sciences (NCATS), 2009).
# About 4,500 (2.2%) of roughly 200,000 compounds were called active. Inconclusive results, whose numbers are uncertain, are shown with a selection of clear calls. Calls come from the whole dose curve; as a rule, active = well fitted inhibition curve with a large enough effect; inconclusive = small, poorly fitted or top-dose-only effect, or effect the other way; inactive = flat fitted curve, though single readings scatter. Where the call is inconclusive, the potency comes from a doubtful curve fit.
# Molecular target: Cruzipain (Trypanosoma cruzi) (UniProt P25779)
# Sequence of UniProt P25779 (P25779 whole entry, looked up): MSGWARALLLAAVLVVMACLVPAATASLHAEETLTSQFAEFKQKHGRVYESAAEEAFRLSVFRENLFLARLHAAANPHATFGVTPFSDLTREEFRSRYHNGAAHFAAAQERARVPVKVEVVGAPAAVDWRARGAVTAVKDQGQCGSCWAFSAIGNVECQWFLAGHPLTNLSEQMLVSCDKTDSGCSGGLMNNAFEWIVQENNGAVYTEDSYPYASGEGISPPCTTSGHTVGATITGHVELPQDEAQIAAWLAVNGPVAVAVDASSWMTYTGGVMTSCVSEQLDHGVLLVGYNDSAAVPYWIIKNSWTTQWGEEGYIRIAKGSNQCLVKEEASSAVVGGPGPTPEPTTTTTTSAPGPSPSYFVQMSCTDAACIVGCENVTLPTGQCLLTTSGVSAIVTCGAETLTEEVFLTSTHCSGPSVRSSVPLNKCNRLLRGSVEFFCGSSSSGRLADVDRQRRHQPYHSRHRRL
# Experiment: qHTS Assay for Promiscuous and Specific Inhibitors of Cruzain (without detergent); note: nearly all actives have a fitted effect of over 40% in size;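 for max response, negative = inhibition: plate controls were enzyme without inhibitor for no effect and buffer without enzyme for full effect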
# Conditions: purified cruzain, Z-FR-AMC fluorescence, no detergent
# Summary of the method: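 Purified cruzain at 1.5 nM, pre-incubated 15 min with compound at room temperature in 100 mM sodium acetate pH 5.5, 5 mM DTT, 0.00005% Triton X-100. Reaction started with 2 uM Z-FR-AMC; AMC fluorescence increase over 60 s gives rate.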
# Potency is the fitted concentration of half-maximal effect; tags give direction and shape of the fitted curve.
Structure (SMILES),Potency,"max response, negative = inhibition"
Cc1ccccc1CCNC(=O)c1ccc2c(c1)c(C)c(C)n2C,"inconclusive: 39.8 µM [inhibitor, single point]",–
CC(C)C[C@@H](CC(=O)N[C@@H](CCC(=O)O)CC(=O)O)NC(=O)[C@@H]1CCCC[C@H]1NC(=O)C[C@H](CCCN)NC(=O)C[C@H](Cc1c[nH]c2ccccc12)NC(=O)[C@@H]1CCCC[C@H]1N,–,inactive: 19.2%
COC(=O)c1cc2oc3ccccc3c2n1Cc1cccc(C)c1,"inconclusive: 39.8 µM [inhibitor, single point]",–
CC/C=C\C/C=C\C/C=C\C/C=C\C/C=C\C/C=C\CCC(=O)O[C@H](COCCCCCCCCCCCCCCCC)COP(=O)([O-])OCC[N+](C)(C)C,"inconclusive: 25.1 µM [activator, partial curve]",–
COc1ccc(N2CCN(c3ccc(-c4nc(-c5ccccc5C)no4)cc3[N+](=O)[O-])CC2)cc1,–,inactive: -0.299%
Cc1ccc(NC(=O)N2CCC(N3CCN(Cc4ccccc4)C(=O)C3=O)CC2)cc1Cl,–,inactive: 13.4%
CCCCC(=O)N(CCOC)c1nnc(-c2ccc(OC)cc2)s1,"inconclusive: 25.1 µM [activator, single point]",–
Cc1ccc(-c2nnc(N3CCCCC3)c3ccccc23)cc1S(=O)(=O)NCC1CCCO1 (centres undefined),"inconclusive: 25.1 µM [activator, single point]",–
COCCCNC(=O)c1ccc2c(c1)N=C(C)c1c(C)ccc(C)c1S2,"inconclusive: 31.6 µM [activator, single point]",–
C[C@]12CC[C@@H]3c4ccc(OC(=O)c5ccccc5)cc4CC[C@H]3[C@@H]1CC[C@@H]2O,"inconclusive: 20 µM [activator, single point]",–
O=C(CSc1nc2ccccc2c(=O)n1CC1CCCCC1)N1CCOCC1,"inconclusive: 31.6 µM [activator, partial curve]",–
COc1ccc(C(=O)Nc2ccccc2C(=O)OCc2cc(=O)n3c4c(sc3n2)CCCC4)cc1,–,inactive: 2.69%
Cc1ccc(CNc2ccc3c(c2)OCO3)c(C)c1,"inconclusive: 39.8 µM [inhibitor, single point]",–
O=C(CCC(=O)N1CC2CCCN2c2ccccc21)NCc1ccccc1Cl (centres undefined),–,inactive: -16.5%
CC1CCCN(S(=O)(=O)c2cc3c(cc2Cl)NC(=O)CO3)C1 (centres undefined),–,inactive: 16.5%
CC(=O)Nc1ccc(S(=O)(=O)N2CCCN(S(=O)(=O)c3ccc(C)cc3)CC2)cc1,"inconclusive: 39.8 µM [activator, single point]",–
COc1ccc(CN(C2CCCCC2C)S(=O)(=O)c2ccc(S(=O)(=O)N(C)C)cc2)cc1OC (centres undefined),"inconclusive: 39.8 µM [activator, single point]",–
CCN(CC)S(=O)(=O)c1ccc2c(c1)N(CC(=O)NCCc1ccc(OC)c(OC)c1)C(=O)CO2,–,inactive: 7.09%
O=C(NNC1=C(C(=O)C(F)(F)F)CCC1)c1ccccc1Cl,–,inactive: 0.543%
COc1ccccc1NC(=O)C1=C(C)Nc2nc(SCc3ccccc3)nn2C1c1ccccn1 (centres undefined),–,inactive: 0.353%
CCCCOc1ccc(N2C(=O)CC(N(O)c3ccccc3)C2=O)cc1 (centres undefined),active: 20 µM,–
CN(C)S(=O)(=O)c1ccc(N2C(=O)CC2(/C=C/c2ccccc2)C(=O)NC2CCCC2)cc1 (centres undefined),"inconclusive: 39.8 µM [inhibitor, single point]",–

Structure (SMILES),Potency,"max response, negative = inhibition"
Cc1ccc(NC(=O)C(Cc2ccccc2)NS(=O)(=O)c2ccc3c(c2)oc(=O)n3C)c(Cl)c1 (centres undefined),–,inactive: -6.63%
Cc1cccc(-n2c(SCc3cc(=O)n4ccsc4n3)nc3ccccc32)c1,"inconclusive: 39.8 µM [activator, single point]",–
S=C(NCc1ccc2[nH]c3c(c2c1)CCCC3)Nc1ccccc1,active: 31.6 µM,–
COc1ccccc1NC(=O)c1cc(S(=O)(=O)N(C)C2CCCCC2)ccc1F,–,inactive: -13.7%
Cc1ccc(-c2nnc(Nc3ccc(Br)cc3)c3ccccc23)cc1S(=O)(=O)N1CCOCC1,–,inactive: -17.8%
COc1cc(-c2nc(-c3ccc(NC(=O)c4ccc(Br)o4)cc3)no2)cc(OC)c1OC,"inconclusive: 20 µM [activator, single point]",–
COc1ccc(-n2c(=O)c3sc4ccccc4c3n(CC(=O)Nc3cccc(C)c3)c2=O)cc1,"inconclusive: 39.8 µM [inhibitor, single point]",–
Cc1ccc(-c2nc3ccccc3[nH]2)cc1NC(=O)/C=C/c1ccco1,"inconclusive: 31.6 µM [inhibitor, single point]",–
Cc1ccc(-c2ccc(C(=O)Nc3cccc(F)c3)o2)c2ccccc12,"inconclusive: 39.8 µM [inhibitor, single point]",–
ClC(=Nc1cccc2ccccc12)N(c1ccccc1)c1ccccc1,–,inactive: -5.45%
CCOc1ccc(C2c3c(-c4ccc(C)cc4)n[nH]c3C(=O)N2c2ccc(Cl)cc2)cc1 (centres undefined),–,inactive: 14.4%
Cc1ccc(S(=O)(=O)CCc2nnc(NC(=O)c3cccs3)s2)cc1,"inconclusive: 39.8 µM [inhibitor, single point]",–
CCc1ccc(NC(=O)CC2C(=O)NCCN2C(=S)Nc2ccccc2)cc1 (centres undefined),"inconclusive: 31.6 µM [activator, single point]",–
O=C(CSc1nnc(NC(=O)NC2CCCCC2)s1)Nc1ccccc1F,–,inactive: -8.39%
CCOC(=O)N1CCC(Nc2c(NCCCOC)c(=O)c2=O)CC1,–,inactive: -3.64%
COc1ccc(NC(=O)c2cc3cc(OC)ccc3oc2=N)cc1,"inconclusive: 39.8 µM [activator, single point]",–
Cc1ccc2nc(S(=O)(=O)O)[nH]c2c1,–,inactive: -1.87%
O=C(Nc1nnc(C23CC4CC(CC(C4)C2)C3)s1)c1ccc(N2C(=O)CCC2=O)cc1,"inconclusive: 31.6 µM [activator, single point]",–
Cc1ccc(S(=O)(=O)/C(C#N)=C/c2c(N3CCC(C(N)=O)CC3)nc3ccccn3c2=O)cc1,"inconclusive: 39.8 µM [activator, single point]",–
O=C(O)CCC(=O)N1CCN(c2nc(-c3ccccc3Cl)c3cc(Br)ccc3n2)CC1,"inconclusive: 10 µM [activator, single point]",–
O=C(Nc1ccc(-c2cc(C(F)(F)F)nn2-c2ccccc2)cc1)c1cccc(F)c1,active: 20 µM,–
COc1cccc(CNC(=O)CN2C(=O)N(c3cc(C)ccc3C)S(=O)(=O)c3ccccc32)c1OC,"inconclusive: 39.8 µM [activator, single point]",–

Structure (SMILES),Potency,"max response, negative = inhibition"
Cc1ccc(C)c(CN2C(=O)c3ccccc3S(=O)c3ccc(C(=O)NCc4ccccc4Cl)cc32)c1 (centres undefined),"inconclusive: 31.6 µM [inhibitor, single point]",–
Cc1ccnc(N/C=C(\C#N)c2nc(-c3cccc(Br)c3)cs2)c1,active: 25.1 µM,–
Cc1ccc(C)c(N2CCN(C(=O)c3cnc4c(-c5ccccc5)c(C)nn4c3C)CC2)c1,"inconclusive: 25.1 µM [activator, single point]",–
CCOC(=O)c1c(NC(C)=O)c2c3c(sc2n1Cc1nc(-c2ccccc2OCC)oc1C)CCCC3,–,inactive: 4.83%
CC(C)c1ccc(/C=c2\sc3nc(-c4ccncc4)nn3c2=O)cc1,"inconclusive: 31.6 µM [activator, single point]",–
COc1ccc(CNC(=O)c2cc3c(-c4ccccc4F)nn(C)c3s2)c(OC)c1,"inconclusive: 3.98 µM [activator, single point]",–
CC(C)c1ccccc1-n1c(SCC(=O)N2CCc3ccccc3C2)nc2ccccc2c1=O,"inconclusive: 39.8 µM [inhibitor, single point]",–
Cc1ccc(-n2c(C)c3c(C)nnc(C)c3c2C)cc1C,"inconclusive: 31.6 µM [inhibitor, single point]",–
CCOC(=O)Cn1nnc2c(sc3nc4c(c(-c5ccc(Cl)cc5)c32)CCC4)c1=O,"inconclusive: 31.6 µM [inhibitor, single point]",–
Cc1ccc(CNC(=O)CCCn2c(=O)c3ccccc3n(CC(=O)C(C)(C)C)c2=O)cc1,"inconclusive: 31.6 µM [activator, single point]",–
OCCNC1=NCCN1,–,inactive: 1.44%
CCOC(=O)Cn1c(=O)n(CC2CCCO2)c2nc(-c3ccc(OC)cc3OC)nc(C(N)=O)c21 (centres undefined),–,inactive: 6.15%
COc1ccccc1/C=C/C(=O)NCC(=O)N/N=C/c1cc(Br)ccc1OC,"inconclusive: 31.6 µM [inhibitor, single point]",–
COc1ccc(C2CC(c3ccc(Cl)cc3Cl)Nc3nc(N)nn32)cc1OC (centres undefined),"inconclusive: 39.8 µM [activator, single point]",–
CCc1cccc(CC)c1NC(=O)COC(=O)c1ccccc1-c1nc2ccccc2s1,"inconclusive: 39.8 µM [activator, single point]",–
Cc1sc(NC(=O)CSc2nnc(C(C)C)n2C)c(C#N)c1C,–,inactive: 3.98%
Cc1nc2ccccc2c(=O)n1-c1ccc(F)cc1,"inconclusive: 2 µM [inhibitor, partial curve]",–
CCCC(C)C(=O)Nc1nc(C)c(-c2csc(Nc3cc(OC)ccc3OC)n2)s1 (centres undefined),"inconclusive: 25.1 µM [inhibitor, single point]",–
CC1=C(C(=O)Nc2ccccc2)C(c2ccc(O)cc2)n2nc(SCc3ccccc3)nc2N1 (centres undefined),"inconclusive: 39.8 µM [inhibitor, single point]",–
C/C(=N/N1CCN(c2ccccn2)CC1)c1cccc([N+](=O)[O-])c1,–,inactive: 5.29%
